Reference: the supplement of paper PMC12217912
The other results are listed elsewhere or left out. The full chains were built here from the parent and the listed change. Inactive controls read about 0.05.

B1: TEV protease; numbered along this chain (parent)
chain: MGESLFKGPRDYNPISSSICHLTNESDGHTTSLYGIGFGPFIITNKHLFRRNNGTLVVQSLHGVFKVKDTTTLQQHLVDGRDMIIIRMPKDFPPFPQKLKFREPQREERICLVTTNFQTKSMSSMVSDTSCTFPSGDGIFWKHWIQTKDGQCGSPLVSTRDGFIVGIHSASNFTNTNNYFTSVPKNFMELLTNQEAQQWVSGWRLNADSVLWGGHKVFMVKPEEPFQPVKEATQL

Variants of: B1
Experiment: raw area under fraction-flipped curve 0-4 h after induction (AUC4h, not background-subtracted), DNA-recorder readout of cleavage of the substrate (dimensionless); higher = more cleavage of the substrate by the protease variant
Conditions: temperature: 34 °C; time window: 0-4 h after rhamnose induction
Description: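 In vivo DNA recorder in E. coli TOP10(DE3) ΔrhaA at 34 °C. Each TEVp single-site mutant (parent TEVp 0) is paired with a single-site variant of the 7-mer TEVs (canonical ENLYFQ|S). The substrate sits between flexible linkers in a Bxb1-sfGFP-TEVs-SsrA fusion, so cleavage stabilises Bxb1 and speeds flipping of a recombination array, read by NGS. The value is the raw area under the fraction-flipped curve over 0-4 h after rhamnose induction (AUC4h), with ≥20 reads per time point. It is not background-subtracted; inactive controls average about 0.047.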
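Also: Bxb1 expression induced with 0.2% (w/v) L-rhamnose at OD600 near 0.5, cultures sampled hourly, flipped fraction per protease–substrate barcode pair counted by paired-end Illumina sequencing.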

Variant	area with substrate EALYFQS	area with substrate ECLYFQS	area with substrate EDLYFQS	area with substrate EELYFQS	area with substrate EFLYFQS	area with substrate EGLYFQS	area with substrate EHLYFQS	area with substrate EILYFQS	area with substrate EKLYFQS	area with substrate EMLYFQS	area with substrate EQLYFQS	area with substrate ERLYFQS	area with substrate ESLYFQS	area with substrate EVLYFQS	area with substrate EYLYFQS	area with substrate ELLYFQS	area with substrate EPLYFQS	area with substrate EWLYFQS	area with substrate ETLYFQS
S135I	0.0629	0.0721	0.128	0.0738	0.0792	0.0771	0.0693	0.0512	0.05	0.0686	0.0641	0.0656	0.0582	0.0711	0.0638				
S135D	0.116	0.0757		0.144		0.0843		0.0842		0.126	0.111		0.0981	0.0917	0.108	0.0995	0.106	0.0856	
T115C	0.12	0.111	0.107	0.126		0.0911	0.1	0.0977			0.119	0.105	0.109		0.11		0.12	0.102	0.134
K148N	0.0893	0.0816	0.095			0.0866	0.0799	0.0879	0.0927		0.0885	0.0741	0.0791	0.0807		0.0906	0.0859	0.0801	0.0799
K148T	0.0635	0.0661	0.119	0.114			0.0864	0.0871	0.105	0.158	0.111		0.107	0.0784	0.0868	0.0855	0.0994		
K148M	0.122	0.109	0.148	0.163	0.123		0.118	0.09	0.0936	0.13		0.0931	0.122	0.096		0.106	0.111		
I139Q	0.145	0.0645		0.123		0.0943		0.091			0.134		0.11					0.0931	
K120L	0.108	0.116	0.14	0.101				0.118			0.0886		0.0826	0.072					0.103
G150F	0.0581	0.0497		0.0586	0.0502	0.0639		0.054	0.0643		0.0576	0.0499	0.0561	0.0449					
G150L	0.0691	0.0528	0.0685	0.0585	0.0557	0.0901	0.0607	0.0531	0.0435	0.049	0.0717	0.0544	0.0629			0.0664	0.0585		0.0618
T147Y	0.0757	0.0766	0.0642	0.111		0.0461	0.0711	0.0604		0.0435	0.0658		0.0694	0.0596	0.0786		0.067		
F117M	0.104	0.0948		0.1			0.103	0.086					0.109						0.0903
T132S	0.129	0.0991	0.104			0.0954		0.0814			0.1					0.0862		0.0818	
T132Y	0.056	0.0553		0.0492	0.0425		0.0663	0.054	0.0531	0.0552		0.0507				0.074		0.054	
T132F	0.0673	0.0607	0.0634	0.0688	0.051	0.0458		0.0658			0.056	0.0551	0.0612		0.0616	0.0804	0.064		
T132G	0.112	0.0844	0.117	0.0632	0.0983		0.0604	0.0933	0.0763	0.09	0.0978	0.0798	0.0838	0.0865	0.0897	0.103		0.118	0.0857
Q146N	0.116	0.111	0.134			0.0995		0.097			0.14	0.109	0.119	0.0802		0.118		0.0882	0.101
D149Q	0.0988	0.146	0.109				0.0809	0.075		0.0894		0.0871	0.0766	0.0765	0.0805	0.0543	0.0968	0.0731	
D149S	0.0935	0.0923	0.131	0.139	0.09	0.0659	0.122		0.104			0.094	0.0869	0.0768		0.0839			0.0955
F133D	0.145	0.0965	0.141	0.16			0.111	0.0931	0.108	0.126	0.105	0.0756	0.16	0.033		0.0839		0.0999	0.0932
M125L	0.122	0.102	0.104		0.144			0.122	0.0979	0.129	0.113	0.118	0.122			0.0972	0.137	0.106	
G136P	0.0731	0.0621		0.0699			0.0768	0.0681	0.0746	0.0705	0.0896		0.072	0.0571	0.0665		0.0721		
Q118H	0.129	0.111	0.107		0.118		0.112	0.0764	0.119				0.102				0.102		0.153
Q118N	0.116	0.0978		0.143		0.11				0.116		0.111	0.0945				0.131	0.0851	0.0896
Q118A	0.107	0.119	0.154	0.119				0.0969	0.108	0.0818	0.0994	0.104	0.12	0.119	0.114	0.0932	0.121	0.094	0.126
Q118F	0.114	0.0924	0.131	0.101		0.0878	0.103	0.0839		0.103			0.107	0.0931		0.0939	0.118	0.107	0.12
Q118G	0.128	0.103	0.13		0.0793	0.0865		0.0946	0.0914	0.128	0.12	0.0418	0.112	0.111			0.131	0.1	0.112
V113N	0.073	0.0537		0.0863	0.0632			0.0571	0.0719	0.0659	0.0561	0.0612	0.0674	0.0324				0.0566	0.0655
